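Assay format: 96-well plates, 48-hour exposure. The concentration for 50% growth inhibition is given as GI50.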 A number of entries come with more than one value. The list is limited to them. The source may hold further records. For some of these results: A record mostly stands for its own series of concentrations, which the source does not state; a value can be the end of its range. For some of these results: Values given together repeat one measurement in other runs, samples, wells, individuals or studies. Brackets tell where a record comes from. Letters hold for one entry only.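 TGI: total growth inhibition.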
Experiments:
Assay in all cases: NCI tumour cell line growth inhibition, 48 h
[1] = test system: CCRF-CEM leukemia
[2] = test system: T-47D breast
[3] = test system: RPMI-8226 leukemia
[4] = test system: SR leukemia
[5] = test system: COLO 205 colon
[6] = test system: OVCAR-8 ovarian
[7] = test system: M14 melanoma
[8] = test system: HOP-62 NSCLC
[9] = test system: MOLT-4 leukemia
[10] = test system: NCI-H460 lung
[11] = test system: ACHN renal
[12] = test system: A549 NSCLC
[13] = test system: HL-60(TB) leukemia
[14] = test system: HCT-116 colon
[15] = test system: MDA-N
[16] = test system: NCI-H522 lung
[17] = test system: MDA-MB-435
[18] = test system: EKVX NSCLC
[19] = test system: U251 CNS
[20] = test system: 786-0 renal
[21] = test system: SW-620 colon
[22] = test system: CAKI-1 renal
[23] = test system: SK-MEL-2 melanoma
[24] = test system: OVCAR-3 ovarian
[25] = test system: SK-OV-3 ovarian
[26] = test system: SF-268 CNS
[27] = test system: MCF7 breast
[28] = test system: HOP-92 NSCLC
[29] = test system: NCI-H23 lung
[30] = test system: MALME-3M melanoma
[31] = test system: PC-3 prostate
[32] = test system: SNB-78 CNS
[33] = test system: HCT-15 colon
[34] = test system: NCI/ADR-RES ovarian
[35] = test system: SNB-75 CNS
[36] = test system: OVCAR-4 ovarian
[37] = test system: SN12C renal
[38] = test system: IGROV1 ovarian
[39] = test system: SK-MEL-28 melanoma
[40] = test system: DLD-1 colon
[41] = test system: SF-539 CNS

S=C(N/N=C(/c1ccccc1)c1ccccn1)N1CCCCCC1
TGI [1]: 607 nM and > 20.1 µM
TGI [2]: 26.6 nM and 1.92 µM
GI50 [3]: < 1 nM and 30.2 nM
TGI [3]: 8.8 nM and 19.8 µM
GI50 [4]: < 1 nM and 28 nM
TGI [4]: 9.23 nM and > 100 µM
TGI [5]: 15.2 nM and 3.77 µM

CCCCCCCCCCCCCCCCOP(=O)(O)OP(=O)(O)OCC1OC(n2ccc(N)nc2=O)C(O)C1O (centres undefined)
GI50 [6]: > 100 µM [sample A, mean of 2 tests] and 4.51 µM [sample B, mean of 2 tests]
GI50 [1]: > 100 µM [sample A, mean of 2 tests] and 967 nM [sample B, mean of 2 tests]
GI50 [7]: > 100 µM [sample A, mean of 2 tests] and 5.33 µM [sample B, mean of 2 tests]
GI50 [8]: > 100 µM [sample A, mean of 2 tests] and 8.65 µM [sample B, mean of 2 tests]
GI50 [9]: > 100 µM [sample A, mean of 2 tests] and 787 nM [sample B, mean of 2 tests]
GI50 [10]: > 100 µM [sample A, mean of 2 tests] and 5.71 µM [sample B, mean of 2 tests]
GI50 [11]: > 100 µM [sample A, mean of 2 tests] and 9.31 µM [sample B, mean of 2 tests]
GI50 [12]: > 100 µM [sample A, mean of 2 tests] and 7.12 µM [sample B, mean of 2 tests]
GI50 [13]: > 100 µM [sample A, mean of 2 tests] and 8.94 µM [sample B, mean of 2 tests]
GI50 [14]: > 100 µM [sample A, mean of 2 tests] and 8.89 µM [sample B, 1 test]
GI50 [4]: > 100 µM [sample A, 1 test] and 1.43 µM [sample B, mean of 2 tests]

CC[C@@]1(O)C(=O)OCc2c1cc1n(c2=O)Cc2c-1nc1cc3c(cc1c2C)OCO3
GI50 [15]: 3.93 nM and 333 nM
TGI [6]: 263 nM and 68.5 µM
TGI [16]: 382 nM and > 100 µM
TGI [17]: 938 nM and 10.5 µM
GI50 [18]: 376 nM and 36.5 nM
TGI [2]: 0.244 nM and 16.5 µM
TGI [19]: 4.69 nM and 109 nM
TGI [13]: 0.228 nM and > 100 µM

CCc1cc2c(cc1N1CCC(N3CCOCC3)CC1)C(C)(C)c1[nH]c3cc(C#N)ccc3c1C2=O
TGI [4]: 216 nM [sample A, mean of 2 tests] and 352 nM [sample B, mean of 2 tests] and 2.61 µM [sample C, 1 test]

Cc1cc2c(c3oc(C4(C)OC4C4OC4C)cc(=O)c13)C(=O)c1c(O)c(C3CC(C)(N(C)C)C(O)C(C)O3)cc(C3CC(N(C)C)C(O)C(C)O3)c1C2=O (centres undefined)
TGI [20]: 10.1 nM and 0.472 nM
TGI [21]: 0.164 nM, 17.3 nM, 3.66 nM
TGI [22]: 0.159 nM and 119 nM
TGI [23]: > 10 µM [1 test] and 0.744 nM, 0.257 nM [mean of 3 tests]
TGI [24]: 0.575 nM and 86.8 nM
TGI [6]: 10.4 nM, 0.968 nM, 2.51 nM
TGI [25]: 28.6 nM and 1.58 nM
TGI [26]: 0.0919, 1.2, 121, 30 nM
TGI [8]: 0.141 nM, 0.496 nM, 12.7 nM
TGI [27]: 0.0732 nM, 10.9 nM, 5.21 nM
TGI [9]: 8.11 nM and 124 nM
TGI [28]: 4.64 nM, 0.827 nM, > 10 µM
TGI [29]: 0.0616 nM, 0.289 nM, 11.6 nM
GI50 [30]: 2.84 nM [1 test] and 0.136 nM [mean of 2 tests]
TGI [30]: 24.9 nM [1 test] and 0.557 nM [mean of 2 tests]
TGI [31]: 0.177 nM, 1.41 nM, > 10 µM
TGI [32]: 29 nM and 462 nM
TGI [33]: 331 nM [mean of 2 tests] and 1.57 nM [mean of 3 tests]
GI50 [16]: 3.68 nM [mean of 2 tests] and 0.166 nM [mean of 3 tests]
TGI [16]: 7.97 nM, 0.75 nM, 8.18 nM
TGI [34]: 0.461 nM, 0.296 nM, 5.46 nM
TGI [10]: 1.65 µM and 2.72 nM
GI50 [35]: 3.66 nM [1 test] and 0.135 nM [mean of 2 tests]
TGI [35]: 8.36 nM [1 test] and 0.403 nM [mean of 2 tests]
GI50 [36]: 4.5 nM [mean of 2 tests] and 0.213 nM [mean of 3 tests]
TGI [36]: 24.3 nM [mean of 2 tests] and 1.52 nM [mean of 3 tests]
TGI [37]: 0.339 nM and 6.74 nM
TGI [38]: 4.56 nM, 6.52 nM, 86.5 nM
TGI [2]: 0.959 nM, 3.15 nM, 399 nM
GI50 [3]: 0.0573 nM and 3.04 nM
GI50 [39]: 1.22 nM and 0.121 nM
TGI [40]: 22.5 nM and 583 nM
TGI [19]: 0.0677 nM, 0.47 nM, 5.51 nM
TGI [41]: 0.172 nM and 3.03 nM
TGI [13]: 47.2, 5.62, 1.28, 4.41 nM
TGI [14]: 5.62 nM, 16.6 nM, 79.8 nM
TGI [5]: 7.43 nM, 16.6 nM [1 test] and 0.544 nM [mean of 2 tests]

Source: PubChem BioAssay (NCI)
